The text below walks through data of ChEMBL document CHEMBL1156829.

In all, about 5,400 compounds were measured (“IFI”: median about 2, highest 2% from about 22 on). The list shows a part of the results.

This assay is described as follows: NOVARTIS: Inhibition Frequency Index (IFI) - the number of HTS assays where a compound showed > 50% inhibition/induction, expressed as a percentage of the number of assays in which the compound was tested. Type of assay: functional.
In turn, `OC(CNCc1ccco1)Cn1c2ccc(Cl)cc2c2cc(Cl)ccc21` (configuration not stated) registered an IFI of 0%.

`CC(C)n1nnnc1CN1CCN(c2ccccc2F)CC1` registered an IFI of 1.67%.

On to `Nc1nnc(CCSc2ccc(Cl)cc2)s1`, for which the IFI worked out at 0%.

In turn, `COc1ccccc1CNc1ncc(C(=O)NCc2ccccc2)c(NCCc2ccccc2)n1` registered an IFI of 1.92%.

As for `COc1cccc(C2C(C(=O)Nc3ccc(C)cc3C)=C(C)Nc3c(C(=O)Nc4ccccc4)cnn32)c1` (configuration not stated), the IFI stood at 0%.

`CN(C)CCNC(=O)COc1ccc(-c2nc3ccccc3s2)cc1CN(C)C`: the IFI was 3.42%.

For `CCCn1c(C=NNc2nc3ccccc3[nH]2)nc2ccccc21`, the IFI worked out at 0%.

Take `Clc1ccc(-n2cc(-c3ccccc3)c3c(N4CCC(Cc5ccccc5)CC4)ncnc32)cc1`: the IFI was found to be 8.33%.

In turn, `COC(=O)c1ccc(C2C3=C(O)CC(c4ccc(F)cc4)CC3=Nc3ccccc3N2C(=O)c2ccccc2)cc1` (configuration not stated) registered an IFI of 4.76%.

Consider `Cc1ccc(Cl)cc1N1CCN(S(=O)(=O)c2ccc3c(c2)oc(=O)n3C)CC1`, for which the IFI turned out to be 0%.

In turn, `CC(=O)N(C)C1=C(N2CCCCCC2)C(=O)c2ccccc2C1=O` had an IFI of 22.5%.

`COCCCNc1nc2nonc2nc1N(C)C1CCOCC1` showed an IFI of 0%.

The compound `COc1cc(C)c(CCNCCCCCCNCCc2cc(OC)c(OC)cc2C)cc1OC` yielded an IFI of 2.38%.

Compound `Cc1ccc(NC(=O)c2ccc(NCCCN3CCC(C)CC3)c([N+](=O)[O-])c2)cc1F` registered an IFI of 0%.

`CCN(CC)CCCNCC(=O)N1c2ccccc2Sc2ccccc21`: the IFI turned out to be 0%.

For the compound `CC(=C(Cl)Cl)/C(Br)=C(\Br)CO`, the IFI was 5%.

`Cc1ccc2c(c1)N(C)/C(=C/c1cccc[n+]1C)S2` showed an IFI of 15.4%.

`CN1CCCC(CNC(=O)c2cnn(-c3ncc4c(n3)-c3ccccc3SC4)c2C2CC2)C1` (configuration not stated) registered an IFI of 1.79%.

Consider `COc1ccccc1NC1=C(N2CCCCC2)C(=O)c2ccccc2C1=O`, for which the IFI was found to be 17.6%.

On to `CC[n+]1c(/C=C2\Sc3cc(NC(C)=O)ccc3N2C)ccc2ccccc21`, for which the IFI stood at 7.69%.

Compound `CCN(CC)CCNc1ccnc2cc(Cl)ccc12` yielded an IFI of 7.14%.

Compound `Cc1ccc(C)c(N2CCN(CCCNC(=O)c3ccc(CSc4nc5cnccc5[nH]4)cc3)CC2)c1` registered an IFI of 8.57%.

Turning to `OC(CNc1cccc2ccccc12)Cn1c2ccc(Cl)cc2c2cc(Cl)ccc21` (configuration not stated), the IFI came out at 5.77%.

As for `CCCCN(CCCC)S(=O)(=O)c1cc(Br)cc2c1N(C(C)=O)CC2`, the IFI came out at 0%.

Turning to `COc1ccc(C(=O)NC(c2ccc(C)cc2)c2cc(Cl)c3cccnc3c2O)cc1` (configuration not stated), the IFI turned out to be 0%.

The compound `COc1cccc(C(NC(=O)c2ccccc2)c2ccc3cccnc3c2O)c1` (configuration not stated) yielded an IFI of 10.6%.

Compound `CC(=O)N(C1=C(N2CCOCC2)C(=O)c2ccccc2C1=O)c1ccc(I)cc1` registered an IFI of 18.7%.

Compound `CC1CCCCN1CCCNc1ncc(C(=O)NCCc2ccccc2)c(NCC2CCCCC2)n1` (configuration not stated) registered an IFI of 2.86%.

As for `C/C(C=NNC(=O)c1ccco1)=C\c1ccccc1`, the IFI is 0%.

Turning to `CCOc1ccc(C=NNC(=O)CCn2nnc3ccccc32)cc1`, the IFI turned out to be 0%.

For `CC(=O)c1ccc(NC(=O)CSc2nnc3c4c(-c5ccc(F)cc5)csc4ncn23)cc1`, the IFI was determined as 5.88%.

For the compound `CCOC(=O)c1nnn(-c2nonc2N)c1-c1ccc(OC)cc1`, the IFI was 0%.

In turn, `CCOc1ccc(C(=O)C(C)[n+]2cc(-c3ccc(OC)cc3)n3c2CCC3)cc1` (configuration not stated) registered an IFI of 8%.

The compound `O=C(c1ccccc1F)N1CCN(Cc2ccccc2C(F)(F)F)CC1` yielded an IFI of 1.18%.

For `Cc1ccccc1Nc1nc(NCCO)c2ccccc2n1`, the IFI was determined as 0%.

As to `Cc1ccc(C(=O)N(CCc2ccccc2)C(C)c2nc3ccccc3c(=O)n2-c2cccc(Cl)c2C)cc1[N+](=O)[O-]` (configuration not stated), the IFI is 1.92%.

In the case of `CCSc1nc2sc3c(c2c(=O)n1CC)CCN(C)C3`, the IFI was 8%.

In the case of `CCC(C)OC(=O)C1=C(C)NC2=C(C(=O)CC(c3ccc(Cl)cc3)C2)C1c1cccc(O)c1` (configuration not stated), the IFI stood at 2.44%.

For `CCCCCN(C(=O)c1ccc(Cl)cc1)C(CC)c1nc2ccccc2c(=O)n1-c1ccccc1OC` (configuration not stated), the IFI was 1%.

On to `Cn1nc(C(=O)N2CCc3ccccc3C2)c2c1CCC(N1CCN(Cc3cccc(F)c3)CC1)C2` (configuration not stated), for which the IFI stood at 1.22%.

Consider `CCCn1cc(SCC(=O)NCc2ccco2)c2ccccc21`, for which the IFI came to 1.15%.

On to `CCCCNC(=O)c1ccc2c(c1)N=C(c1cccnc1)N(CCN1CCOCC1)C2`, for which the IFI stood at 2.44%.

`COc1ccc(S(=O)(=O)Nc2ccc(N3CCC(Cc4ccccc4)CC3)c(C(=O)NC(C)C)c2)cc1` yielded an IFI of 2.08%.

As to `O=C1c2ccc(-c3nc(-c4ccccc4)[nH]c3-c3ccccc3)cc2-c2cc(-c3[nH]c(-c4ccccc4)nc3-c3ccccc3)ccc21`, the IFI came out at 0%.

`CCOc1ccc(S(=O)(=O)c2cn(Cc3ccccc3C)c3ccc(OC)cc3c2=O)cc1` displayed an IFI of 0%.

In turn, `O=C(NNc1nc2ccccc2nc1Cl)Nc1ccc(Cl)cc1` showed an IFI of 2.4%.

For `Cc1cc(I)ccc1N1C(=O)C2C3c4ccccc4C(CO)(c4ccccc43)C2C1=O` (configuration not stated), the IFI is 0%.

In turn, `COc1cc(C(=O)NCCc2ccccn2)ccc1OC1CCN(CC(c2ccccc2)c2ccccc2)CC1` had an IFI of 1.37%.

Turning to `CCOP1(=O)COc2ccccc2OC1`, the IFI was determined as 0%.

The compound `C=C[C@H]1CN2CC[C@H]1C[C@@H]2[C@@H](O)c1ccnc2ccc(OC)cc12` registered an IFI of 1.67%.

`O=C1CSC2=NCN(c3cccc(Cl)c3)CN12` had an IFI of 2.08%.

In turn, `CCc1ccc(NC(=O)COC(=O)c2cccs2)cc1` registered an IFI of 0%.

On to `O=C(Nc1ccc(N2CCCCC2)cc1)N1CCc2nc[nH]c2C1`, for which the IFI was determined as 5.41%.

Turning to `COC(=O)[C@@H]1C[C@@H](NC(=O)c2ccc(C)cc2)CN1Cc1ccc(OC)c(C)c1OC`, the IFI amounted to 0.885%.

For `COc1ccc(C2Nc3ccc([N+](=O)[O-])cc3C3C=CCC32)cc1[N+](=O)[O-]` (configuration not stated), the IFI amounted to 8.33%.

The compound `CCCCCCN(C(=O)c1cccc([N+](=O)[O-])c1)C(CC)c1nc2ccccc2c(=O)n1-c1ccccc1OC` (configuration not stated) yielded an IFI of 2.86%.

In the case of `CCCCCCCN(CCCCCCC)CC(O)c1cc2ccccc2c2cc(Br)ccc12` (configuration not stated), the IFI stood at 0.885%.

In the case of `Cc1ccn2c(NC(C)(C)CC(C)(C)C)c(-c3ccccc3OC(=O)c3ccc(C)c([N+](=O)[O-])c3)nc2c1`, the IFI amounted to 3.74%.

The compound `CCCCCCOc1ccc(NC(=O)c2cccs2)cc1` returned an IFI of 0%.

Compound `O=C(N=CNNc1ccccc1F)c1cc(OCC(F)(F)F)ccc1OCC(F)(F)F` returned an IFI of 3.9%.

The compound `CCOC(=O)c1nnn(-c2nonc2N)c1-c1ccc(OC)c(OC)c1` came in with an IFI of 0%.

`CN(C)c1ccc(/C=C2\SC(=N)N(c3nccs3)C2=O)cc1` yielded an IFI of 16.7%.

`Cc1nc(-c2ccccc2)nc(C(=O)N2CCN(S(=O)(=O)/C=C/c3ccccc3)C(C)C2)c1C(=O)OCC(C)C` (configuration not stated) showed an IFI of 1.89%.

As to `Cc1ccc(-n2c(SCc3ccc(F)cc3)nnc2C(Cc2ccccc2)NC(=O)NC(C)(C)C)cc1` (configuration not stated), the IFI is 3.26%.

`Cc1ccc(C(=O)Oc2ccccc2-c2nc3ccccn3c2NC(C)(C)CC(C)(C)C)cc1[N+](=O)[O-]` had an IFI of 2.83%.

Regarding `CCCN1CCc2c(sc3nc(SCC(=O)c4ccccc4)nc(N)c23)C1`, the IFI was found to be 8%.

`Cc1cc(C)cc(C(=O)Nc2c3c(nn2-c2cccc(C)c2C)CS(=O)(=O)C3)c1` yielded an IFI of 4.71%.

Take `Cn1c2c([n+](C)c1CCl)C(=O)c1ccccc1C2=O`: the IFI is 35.7%.

`CC(=O)c1ccc(N2CCN(Cc3cc(-c4ccnc5cc(Cl)ccc45)ccc3O)CC2)cc1` gave an IFI of 3%.

In turn, `CCNC(=O)N(CCCCOc1ccc(C(C)(C)CC)cc1C(C)(C)CC)Cc1ccc(OC)c(OCc2ccccc2)c1` showed an IFI of 0.943%.

Consider `CNC(=O)c1ccc(NC(=O)Nc2ccc(C3=NCCCN3)cc2)cc1NC(=O)Nc1ccc(C2=NCCCN2)cc1`, for which the IFI was 0.909%.

On to `O=S(=O)(c1ccccc1)N1CCN(CC2CNCCO2)CC1` (configuration not stated), for which the IFI amounted to 1.41%.

Compound `CCOC(=O)C1=C(C)NC2=C(C(=O)CC(c3ccc(OC)c(OC)c3)C2)C1c1ccc(SC)cc1` (configuration not stated) yielded an IFI of 5.88%.

The compound `Cc1cc(Nc2ccc(O)cc2)nc2cccc(O)c12` showed an IFI of 0%.

On to `COc1cccc(OCC(=O)NN=C(C)CC(=O)NCc2ccco2)c1`, for which the IFI worked out at 0%.

The compound `Cc1ccc(Cn2c(SCc3ccc(C(=O)NCCc4ccccc4)cc3)nc3ccncc32)cc1` had an IFI of 0%.

As to `c1cncc(CCNc2nccn3c(-c4cccc5ccccc45)cnc23)c1`, the IFI was found to be 0%.

Compound `COc1cc(NC(C)CCCN(Cc2ccccc2OC)C(=O)c2ccc(Cl)c([N+](=O)[O-])c2)c2ncccc2c1` (configuration not stated) showed an IFI of 5.43%.

Compound `COc1ccc(-c2c[n+](CC(=O)c3ccccc3)c3n2CCC3)cc1` registered an IFI of 2.38%.

As for `Oc1cccc2ccc[n+](CC(O)Cn3c4ccccc4c4ccccc43)c12` (configuration not stated), the IFI was determined as 0%.

In turn, `COc1cccc(-c2cn3c(n2)sc2cc(C(=O)NC4CCN(Cc5ccccc5)CC4)ccc23)c1` showed an IFI of 10.5%.

`CC(=O)c1cccc(CN2CCC(C(=O)Nc3ccc(-n4nc(C)cc4C)cc3)CC2)c1` had an IFI of 0%.

`CCCCCCCCCC(=O)Oc1ccccc1-c1nc2cc(C)ccn2c1NC(C)(C)CC(C)(C)C`: the IFI was determined as 2.17%.

The compound `O=c1[nH]nc(SCc2c(F)cccc2[N+](=O)[O-])c(=O)[nH]1` registered an IFI of 0%.

The compound `Cn1nc(C(=O)N2CCCC2)c2c1CCC(NCc1cnc3ccccc3c1)C2` (configuration not stated) gave an IFI of 2.47%.

In the case of `CCOc1ccc2[nH]c3c(NCCN(C)C)ncnc3c2c1`, the IFI was found to be 3.12%.

Compound `CCNC(=O)NCCSc1nc(-c2ccc(OC)cc2)c(-c2ccc(OC)cc2)n1CC` gave an IFI of 2.75%.

Compound `CCOC(=O)c1ccc(N2CCN(c3ccc(F)cc3)CC2)c(NC(=O)Nc2ccccc2)c1` displayed an IFI of 0%.

Consider `COc1ccc(OC)c(-c2ccc(O)c(CNCC3(N4CCCCC4)CCCCC3)c2)c1`, for which the IFI amounted to 0.885%.

Turning to `CCNC(=S)NC1CC2CCCC(C1)N2CCc1ccccc1` (configuration not stated), the IFI turned out to be 2.6%.

The compound `CS(=O)(=O)c1cnc2ncnn2c1C1CCCN(C(=O)c2ccccn2)C1` (configuration not stated) returned an IFI of 0%.

`Cc1ccc2c(c1)NC(c1ccc(F)cc1)C1=C(CC(c3ccccc3)CC1=O)N2` (configuration not stated): the IFI came to 2.35%.

Turning to `CC(C)(C)Cc1ccc(OCCCC(=O)Nc2ccc(Cl)c(N)c2)c(CC(C)(C)C)c1`, the IFI amounted to 8.4%.

`CC(C)c1ccc(NC(=O)/C=C/c2ccccc2Cl)cc1` showed an IFI of 0%.

On to `O=C(CCN1C(=O)C2CCCCC2C1=O)N1CCc2ccccc2C1` (configuration not stated), for which the IFI came to 1.56%.

`O=C(Nc1ccccc1)c1ccccc1OCC(O)Cn1c2ccccc2c2ccccc21` (configuration not stated) came in with an IFI of 0%.

For the compound `Cc1sc2nc(C3CC3)n(C3CCN(C(=O)c4ccccn4)CC3)c(=O)c2c1C`, the IFI amounted to 0%.
